Consider 38 molecules from the supplement of paper PMC9446081.

SMILES strings stand for the structures. Among all 39,000 compounds or so, about 220 (0.56%) showed activity. The list shows a part of the results.
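Further: static incubation at 37 °C against the wild-type strain, values averaged over two biological replicates.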

This test concerns Escherichia coli K-12 BW25113. As to the kind of experiment: relative growth (OD600 normalised to plate interquartile mean) (fraction); higher = less growth inhibition, active = 0.2 or less. The note with it: 50 µM; LB; incubation time: overnight (16-24 h).
Regarding `C[C@H](CO)N1C[C@H](C)[C@H](CN(C)CC2CC2)Oc2cc(C#Cc3ccc(F)cc3)ccc2S1(=O)=O`, the relative growth is inactive: 1.02.
On to `C[C@H]1CN([C@@H](C)CO)S(=O)(=O)c2ccc(C#CC3CC3)cc2O[C@@H]1CN(C)C(=O)C1CCCCC1`, for which the relative growth was inactive: 0.996.
The figure for `C[C@H]1CCCCO[C@H](CN(C)C(=O)Nc2ccc3c(c2)OCO3)[C@@H](C)CN([C@@H](C)CO)C(=O)c2cc(NC(=O)Cc3ccccc3)ccc2O1` is inactive: 0.999; for `COc1ccc(S(=O)(=O)Nc2ccc3c(c2)C(=O)N([C@H](C)CO)C[C@H](C)[C@H](CN(C)C(=O)Nc2ccccc2)OCCCC[C@H](C)O3)cc1` it is inactive: 1.
For the molecule `C[C@@H]1CCCCO[C@H](CN(C)C(=O)NC2CCCCC2)[C@@H](C)CN([C@@H](C)CO)C(=O)c2cc(NC(=O)Nc3ccc(C(F)(F)F)cc3)ccc2O1`, the relative growth is inactive: 0.991.
As to `Cc1ccc(S(=O)(=O)Nc2ccc3c(c2)C(=O)N([C@H](C)CO)C[C@H](C)[C@@H](CN(C)C(=O)Nc2cccc4ccccc24)OCCCC[C@H](C)O3)cc1`, the relative growth is inactive: 1.03.
The result for `Cc1ccc(S(=O)(=O)Nc2cccc3c2O[C@H](CN(C)Cc2ccc(-c4ccccc4)cc2)[C@H](C)CN([C@H](C)CO)C3=O)cc1` reads inactive: 1.01; that for `N[C@H]1CC[C@@H](NC(=O)[C@H]2CCc3ccccc32)CC1`, inactive: 0.971.
The result for `COCCOC(=O)N1C(=O)[C@@]2(c3cc(C#CC4=CCCCC4)ccc31)[C@H](c1ccccc1OCCO)N1[C@H](c3ccccc3)[C@H](c3ccccc3)OC(=O)[C@H]1[C@@H]2C(=O)N1CCCCCCC1` reads inactive: 1.04; that for `COc1ccc(NC(=O)O[C@H]2[C@H](OC(=O)Nc3ccccc3-c3ccccc3)[C@H](OC(=O)Nc3ccccc3-c3ccccc3)[C@@H](OC)O[C@@H]2CO)cc1`, inactive: 1.06.
Turning to `COc1ccc(NC(=O)Nc2ccc3c(c2)C(=O)N([C@H](C)CO)C[C@H](C)[C@H](CN(C)CC2CC2)OCCCC[C@H](C)O3)cc1`, the relative growth is inactive: 0.961.
The result for `CCCCC[C@@H](O)[C@H]1C(=O)O[C@H](C)[C@@H](O)/C=C/C=C/C=C/C=C/C=C(\C)[C@@H](O)C[C@H](O)C[C@H](O)C[C@H](O)C[C@H](O)C[C@H](O)C[C@@H]1O` reads inactive: 0.991; that for `NCc1c(Cl)cccc1Cl`, inactive: 0.997; that for `CO[C@H]1CN(C)C(=O)c2cc(NS(C)(=O)=O)ccc2OC[C@@H](C)N(C(=O)C2CCCCC2)C[C@H]1C`, inactive: 0.998.
The figure for `O=C(C[C@H]1CC[C@H](NC(=O)CN2CCOCC2)[C@H](CO)O1)NCCc1ccccc1` is inactive: 0.965; for `C[C@@H]1CN([C@@H](C)CO)C(=O)c2cccc(NS(=O)(=O)c3cn(C)cn3)c2O[C@H]1CN(C)S(=O)(=O)c1cccs1` it is inactive: 0.986; for `C[C@@H]1NC(=O)NC1=O` it is inactive: 0.984.
`C[C@@H]1CN([C@H](C)CO)C(=O)c2cccc(NC(=O)c3cnccn3)c2O[C@H]1CN(C)C(=O)Nc1ccc2c(c1)OCO2`: the relative growth is inactive: 1.01.
Turning to `Cc1noc(C)c1S(=O)(=O)Nc1cccc2c1O[C@@H](CN(C)C(=O)NC(C)C)[C@@H](C)CN([C@@H](C)CO)C2=O`, the relative growth was inactive: 1.02.
For the molecule `C[C@@H]1CN([C@H](C)CO)C(=O)c2cc(NC(=O)Cn3cnnn3)ccc2O[C@@H]1CN(C)Cc1ccc(C(F)(F)F)cc1`, the relative growth is inactive: 0.996.
Take `CO[C@H]1C[C@@H](O[C@@H](O)[C@@H](O)[C@@H](O)[C@@H](O)[C@@H](O)CO)c2c(cc3cc(C)oc(=O)c3c2O)OC1=O`: the relative growth is inactive: 0.997.
The figure for `O=C(CCCCCCC(=O)Nc1ccc([C@H]2O[C@@H](CSc3ccccn3)C[C@H](c3ccccc3)O2)cc1)NO` is inactive: 0.963; for `C[C@@H]1CN([C@H](C)CO)C(=O)c2cc(C#Cc3ccccc3F)cnc2O[C@@H]1CN(C)C(=O)C1CCOCC1` it is inactive: 1.01; for `Cc1ccc([C@@H](N)c2ccncc2)cc1` it is inactive: 0.982.
In the case of `COc1ccc(S(=O)(=O)Nc2ccc3c(c2)CC(=O)N([C@@H](C)CO)C[C@@H](C)[C@@H](CN(C)Cc2ccc(Oc4ccccc4)cc2)O3)cc1`, the relative growth is inactive: 0.994.
`CO[C@@H](C(=O)N(C)C[C@@H]1OCc2ccccc2-c2c(n(C)c3ccccc23)C(=O)N([C@@H](C)CO)C[C@H]1C)c1ccccc1`: the relative growth was inactive: 1.01.
The result for `Cc1noc(C)c1NC(=O)N(C)C[C@@H]1Oc2ccc(NC(=O)CCN3CCOCC3)cc2C(=O)N([C@@H](C)CO)C[C@H]1C` reads inactive: 1.04; that for `COc1ccc2c3c([nH]c2c1)[C@H](CO)N(C[C@]13CN(CC2CCOCC2)C1)C(=O)Nc1c(noc1C)C`, inactive: 1.02; that for `C[C@H](CO)N1C[C@H](C)[C@@H](CN(C)C(=O)Nc2ccc3c(c2)OCO3)Oc2ccc(NC(=O)CCN3CCOCC3)cc2CC1=O`, inactive: 0.981.
The result for `Cc1cc(C(=O)NCc2cccn2C)nn1C` reads inactive: 1.02.
The figure for `C[C@@H]1CN([C@@H](C)CO)C(=O)c2cc(NC(=O)Nc3cccc4ccccc34)ccc2O[C@@H](C)CCCCO[C@@H]1CN(C)S(=O)(=O)c1ccc(F)cc1` is inactive: 1.01; for `N#C/C(=C\c1cccs1)c1csc2ccc(Cl)cc12` it is inactive: 0.994; for `Nc1cccc(=O)[nH]1` it is inactive: 1.03.
For the molecule `C[C@@H]1CCCCO[C@H](CN(C)S(=O)(=O)c2ccc(Cl)cc2)[C@@H](C)CN([C@H](C)CO)C(=O)c2cc(NC(=O)Nc3ccc4c(c3)OCO4)ccc2O1`, the relative growth is inactive: 1.02.
The result for `C[C@@H]1CN([C@H](C)CO)C(=O)c2cccc(NC(=O)C3CC3)c2O[C@H]1CN(C)S(=O)(=O)c1cccs1` reads inactive: 1.01; that for `Cc1cc(C(C)(C)C)cc(C)c1CC1=NCCN1.Cl`, inactive: 1.04.
The figure for `C[C@H]1CCCCO[C@H](CN(C)C(=O)C2CCCCC2)[C@@H](C)CN([C@@H](C)CO)C(=O)c2cc(NC(=O)Nc3ccc4c(c3)OCO4)ccc2O1` is inactive: 1.02; for `C[C@@H]1CN([C@@H](C)CO)C(=O)c2cc(NC(=O)Nc3cccc4ccccc34)ccc2O[C@H]1CN(C)Cc1ccc(C(=O)O)cc1` it is inactive: 0.995.
